Measurements: PubChem BioAssay AID488969 (Vanderbilt High Throughput Screening Facility, 2010)
In all, about 110,000 compounds were measured (“z-score”: median about -0.1, highest 2% from about 2 on). The list shows a part of the results.

Target: Metabotropic glutamate receptor 8 (Rattus norvegicus) (UniProt P70579)
Assay: mGluR8 Gi/Go-coupled signaling modulation – cell-based, rat, thallium flux, HTS, primary screen (AID 488969)
Details: HEK293 rat mGluR8, GIRK (G protein-gated inwardly rectifying potassium channel) thallium flux, FluoZin2; at 10 µM; stronger effect = higher value; submaximal glutamate (EC20) added with thallium

Chain of UniProt P70579 (P70579 whole entry, looked up): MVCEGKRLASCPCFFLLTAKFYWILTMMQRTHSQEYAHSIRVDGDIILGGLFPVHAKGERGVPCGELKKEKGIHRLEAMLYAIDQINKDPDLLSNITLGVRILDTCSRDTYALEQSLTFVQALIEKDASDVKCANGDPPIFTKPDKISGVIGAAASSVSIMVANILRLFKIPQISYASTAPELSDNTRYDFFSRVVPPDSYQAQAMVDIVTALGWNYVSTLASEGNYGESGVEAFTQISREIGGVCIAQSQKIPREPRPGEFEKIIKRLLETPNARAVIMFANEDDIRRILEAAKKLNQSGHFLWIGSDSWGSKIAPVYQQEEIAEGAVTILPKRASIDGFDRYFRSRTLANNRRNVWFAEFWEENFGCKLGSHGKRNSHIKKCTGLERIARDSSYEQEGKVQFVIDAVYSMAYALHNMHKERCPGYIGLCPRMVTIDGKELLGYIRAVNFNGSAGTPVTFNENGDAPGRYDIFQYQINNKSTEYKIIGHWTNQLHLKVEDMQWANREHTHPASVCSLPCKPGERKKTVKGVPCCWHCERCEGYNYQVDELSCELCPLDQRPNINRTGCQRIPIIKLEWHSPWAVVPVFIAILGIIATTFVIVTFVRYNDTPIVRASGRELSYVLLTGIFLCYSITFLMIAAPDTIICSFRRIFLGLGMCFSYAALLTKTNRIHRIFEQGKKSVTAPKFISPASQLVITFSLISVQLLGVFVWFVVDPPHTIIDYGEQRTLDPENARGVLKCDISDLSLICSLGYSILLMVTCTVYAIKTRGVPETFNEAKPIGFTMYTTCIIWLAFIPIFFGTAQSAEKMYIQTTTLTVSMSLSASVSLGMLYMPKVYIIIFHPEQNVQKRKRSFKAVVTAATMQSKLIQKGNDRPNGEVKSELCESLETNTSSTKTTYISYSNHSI

SMILES	z-score
COc1ccc(O)c(C(=O)c2cnc3c(c2)c(=O)[nH]c(=O)n3C)c1	-0.107
Cn1nnnc1SCC(=O)N1CCN(Cc2ccccc2)CC1	-0.0959
O=C(OCc1cc(=O)n2cc(Br)ccc2n1)c1ccc(Cl)c(S(=O)(=O)NCc2ccccc2)c1	-0.182
CCOC(=O)c1c(C)[nH]c(C(=O)COC(=O)C2(C)CC2(Cl)Cl)c1C (stereo unspecified)	-0.344
COc1cc(NC(=S)NNC(=O)CC(C)C)c(OC)cc1Cl	-0.155
O=c1oc(-c2ccccc2)nc2c1C1(CCCCC1)Cc1ccccc1-2	0.889
O=C(Nc1ccc2c(c1)OCCO2)C1CCC1	0.045
COc1ccc(C(c2sc3nc(C)nn3c2O)N2CCCCC2)cc1 (stereo unspecified)	-0.138
CCc1nc(N2CCCC2)c(C#N)c2c1CCCC2	-0.517
COc1cc(C(=O)Nc2nnc(-c3sccc3C)s2)cc(OC)c1OC	1.51
COc1ccc(NC(=O)CSc2nncn2C)c([N+](=O)[O-])c1	0.0754
N#Cc1c(/N=C/c2ccco2)sc2c1CCCCC2	0.423
CCOC(=O)CN=C1CC(C)(C)CC2=C1Sc1ncnc(N(C)C)c1N2	-0.302
COC(=O)c1c(-c2ccncc2)csc1NC(=O)c1ccoc1C	-0.683
CCCC(=O)c1ccc2c(c1)OCCO2	-0.255
CCn1c(CC(=O)Nc2ccc(C)c(Cl)c2)nnc1SCC(=O)Nc1nc(C)cs1	0.176
Cn1nnnc1SC(C(=O)Nc1cccc(C(F)(F)F)c1)c1ccccc1 (stereo unspecified)	-0.391
CCc1ccc2c(c1)CCCN2C(=O)c1ccccc1C(=O)O	0.00689
Cc1ccc(-n2c(C)cc(C(=O)COC(=O)c3ccc[nH]c3=O)c2C)cc1	-0.0945
CCNc1nc(OCCNS(=O)(=O)c2cc(C)ccc2C)nc(N(C)C)n1	-0.0683
O=C1CCCN1CCC1CCN(C2CC(=O)N(c3ccc(Cl)cc3)C2=O)CC1 (stereo unspecified)	0.127
CCN(CC)c1ccc(NC(=O)Nc2ccccc2C(F)(F)F)cc1	-0.133
Cc1ccc2c(CN3CCC(C)CC3)cc(=O)oc2c1	-0.214

SMILES	z-score
COC(=O)N/N=C\C=C\c1ccc2c(c1)OCO2	-0.0578
COC(=O)c1ccc(C)c(NC(=O)CN(c2cc(OC)ccc2OC)S(C)(=O)=O)c1	-0.157
Brc1ccc(-c2nnc3ccc(N4CCN(c5ccccc5)CC4)nn23)cc1	-0.123
OC1C2(Cc3ccccc3)CN3CCN(C2)CC1(Cc1ccccc1)C3 (stereo unspecified)	-0.264
Cc1ccc2nc(CSc3nnc(-c4ccco4)n3-c3ccccc3)cc(=O)n2c1	-1.34
Cc1nc(NC(=O)c2ccccc2)sc1-c1csc(Nc2ccc(Cl)cc2)n1	-0.0853
Cc1ccccc1N(CC(=O)N/N=C/c1ccccc1Cl)C(=O)c1ccccc1	-0.0818
COc1cccc(/C=N/n2c(SC)nnc2-c2ccccc2)c1OC	-1.13
CCOc1ccc(OCC)c(NC(=O)C2CCCN(S(=O)(=O)c3c(C)n[nH]c3C)C2)c1 (stereo unspecified)	-0.342
O=C(Nc1cccc(Br)c1)/C(=C\c1cccnc1)NC(=O)c1ccco1	0.224
CC(C)c1ccc(-n2cccc2/C=C2/C(=N)N3C=CSC3=NC2=O)cc1	2.17
Cc1cccc(OCc2nnc(N)s2)c1	-0.235
N#CNC(=Nc1cccc(F)c1)SCc1ccccc1F	-0.112
CCOC(=O)C1CCCCN1Cc1ccc(C(F)(F)F)cc1 (stereo unspecified)	-0.136
C=CCn1c(C)cc(C(=O)CSc2nnc(NC(C)C)s2)c1C	-0.18
C/C=C/C(=O)Nc1ccccc1Br	1.01
CCCC(=O)N1CCc2cc(OC)c(OC)cc2C1c1cc2cc3c(cc2[nH]c1=O)OCO3 (stereo unspecified)	-0.29
CCCCCOc1ccc(CSc2ncn[nH]2)cc1	-0.179
O=C(Nc1ccc(S(=O)(=O)N2CCCc3ccccc32)cc1)C1CCCO1 (stereo unspecified)	-0.218
O=C(NCCCN1CCOCC1)c1cccs1	0.402
COc1ccc(CCN(C(=O)C(F)(F)F)C(C(=O)NC2CCCCC2)c2ccc(C)s2)cc1OC (stereo unspecified)	-0.485
O=C(Nc1ccccc1)N1N=C(c2ccc(F)cc2)CC1c1ccc(F)cc1 (stereo unspecified)	-0.338
Cc1cc(C)n(C(=O)c2ccc(C)c(S(=O)(=O)N3CCCCC3)c2)n1	-0.353

SMILES	z-score
COc1ccc(-c2cc3nc(C4CCN(C(=O)OC(C)(C)C)CC4)c(C(=O)O)cn3n2)cc1	-0.691
COc1ccc(-c2nc(CC(=O)O)cs2)cc1OC	-0.228
CC(C)(C)NC(=O)C(c1ccccn1)N(C(=O)C1CSC(=O)C1)c1ccc(F)cc1 (stereo unspecified)	-0.791
Cc1ccc(S(=O)(=O)NC(C(=O)Oc2cc3oc(=O)cc(C)c3cc2Cl)C(C)C)cc1 (stereo unspecified)	-0.124
Cc1ccc(-n2ncc3c(=O)[nH]c(SCC(=O)N4CCN(c5ccccc5)CC4)nc32)cc1	0.0413
Cc1ccc(C2NC(c3ccc(C)cc3)C([N+](=O)[O-])C(C)(C)C2[N+](=O)[O-])cc1 (stereo unspecified)	-0.18
Cc1ccc(N(CC(=O)Nc2ccc(S(=O)(=O)N3CCOCC3)cc2)S(C)(=O)=O)cc1C	-0.552
Cc1ccsc1/C=C/c1ccc2cccc(O)c2n1	-0.139
Cn1c(=O)n(CC(=O)Nc2ccccc2)c2ccccc21	0.064
COC(=O)c1ccccc1NC(=O)c1ccccc1NS(C)(=O)=O	-0.195
COC(=O)c1sc2cc(C(F)(F)F)cnc2c1-c1cccnc1	-0.0811
Cc1cccc(NC(=O)C(C)Oc2ccccc2C)n1 (stereo unspecified)	-0.61
O=C(O)CCCNS(=O)(=O)c1ccc(NCc2ccccc2)c(C(=O)O)c1	0.608
CC1CC(NC(=O)c2ncn[nH]2)CC(C)(C)C1 (stereo unspecified)	0.166
CCC1=NN(C(=O)CCc2ccccc2O)C(O)(C(F)(F)F)C1 (stereo unspecified)	-0.014
COc1ccc(-c2cc(C(F)(F)F)nc(-n3cncn3)n2)cc1	0.378
CC1=C(C(N)=O)C(c2ccc(C)o2)C(C(N)=O)=C(C)N1	0.494
CC(C)(C)c1ccc(C(=O)NNc2cc(N3CCCCC3)nc(N3CCCCC3)n2)cc1	-0.139
CNC(=O)C(Sc1nc(C)nc2c1oc1ccccc12)C(C)=O (stereo unspecified)	0.707
COc1ccccc1NC(=S)N(CCc1c(C)[nH]c2ccccc12)Cc1cccs1	0.381
COc1ccc(OC)c(C2C(C#N)=C(N)Oc3cc(C)[nH]c(=O)c32)c1 (stereo unspecified)	-0.0524
COc1ccc(C2C3=C(CCCC3=O)Nc3c(-c4ccccc4)c(C)nn32)cc1 (stereo unspecified)	-0.809
Cc1cc(C)cc(NC(=S)NCc2ccc3c(c2)OCO3)c1	0.0262

SMILES	z-score
O=C(NCc1ccc(Cl)cc1)c1cc(-c2ccco2)on1	0.451
Cc1cccc(Cn2ccc(-c3ccc(Cl)cc3)c(C#N)c2=O)c1	-0.237
CCOC(=O)CP(=O)(c1ccccc1)c1ccccc1	0.215
CCCCNCCCOc1cccc(Cl)c1Cl	1.7
Cc1cc(C(=O)CSc2nc3ccccc3n2C)c(C)n1C	-0.168
CC1(C)CC(=O)C(Sc2nnc(-c3ccc(NS(C)(=O)=O)cc3)n2Cc2ccco2)C(=O)C1	0.0581
Cc1cc(C)nc(NS(=O)(=O)c2ccc(NC(=O)C3CC(=O)N(c4ccccc4)C3)cc2)n1 (stereo unspecified)	-0.0697
Cc1c(C#N)c2ncn(Cc3ccccc3)c(=O)c2n1-c1ccccc1	-0.85
O=C(O)CCCc1nc2ccccc2s1	0.0725
CSC(=O)CC(=O)NC(=O)c1ccccc1	-0.282
N#Cc1ccc(NC(=O)COC(=O)CSc2nnc(-c3ccc(Cl)cc3)o2)cc1	-0.596
O=C(NCC(c1cccnc1)N1CCN(c2ccccc2)CC1)c1ccco1 (stereo unspecified)	-0.0332
O=C(Cn1cc([N+](=O)[O-])cn1)N1N=C(C(F)F)CC1(O)C(F)F (stereo unspecified)	0.0964
O=C(c1ccco1)N1CCC(c2nc(-c3ccc(F)cc3)no2)CC1	-0.112
COc1ccc(CCNC(=O)C23CN(Cc4ccccc4)CC2C(c2ccc([N+](=O)[O-])cc2)=NO3)cc1 (stereo unspecified)	-0.401
COCc1cc(=O)[nH]c(=S)[nH]1	0.225
CCc1nc2ccccc2n1Cc1ccccc1OC	-0.822
O=S(=O)(Nc1nccs1)c1ccc(NS(=O)(=O)c2cccs2)cc1	0.439
COc1ccc(N/N=C(/C#N)S(=O)(=O)c2nsc(C)c2C#N)cc1	-0.0431
O=C(Nc1nccs1)c1ccc2c(=O)n3c(nc2c1)CCCCC3	-0.461
CCCCNC(=O)c1onc(CSc2ccc(C)c(C)c2)c1C(=O)O	-0.306
Cn1c(=O)[nH]c(=O)c2c1nc(N1CCC(Cc3ccccc3)CC1)n2Cc1ccccc1	0.269
CCN1CCN(CC(=O)Nc2ccc(C)cc2C)C(=O)C1=O	0.235

SMILES	z-score
CN(C)/C=N/c1ncc(C(=O)c2ccccc2)s1	0.0738
O=c1oc2ccccc2c(Nc2ccc3ccccc3c2)c1[N+](=O)[O-]	-1.94
COCCCNC(=O)CSc1nc2ccc(N3CCOCC3)cc2c(=O)n1CCc1ccccc1	1.32
COc1ccc(-c2noc(-c3ccccc3C(=O)Nc3cccnc3)n2)cc1	-0.217
CCCCn1nnnc1NCc1ccc(C)s1	-0.109
O=C1C2C3C=CC(C4CC34)C2C(=O)N1c1nccs1 (stereo unspecified)	0.237
CCCc1noc(-c2ccc(-c3ccccc3)cc2)n1	0.0459
c1ccc(Cn2nnc3c(N4CCN(Cc5ccc6c(c5)OCO6)CC4)ncnc32)cc1	0.579
CNC(=O)c1ccc(N(Cc2ccccc2C)S(C)(=O)=O)cc1	0.0583
CC1CCCCN1C(=O)c1cc(Cl)ccc1[N+](=O)[O-] (stereo unspecified)	-0.372
CCOC(=O)C(/C=C(\C#N)C(=O)OCC)=C(/N)N1CCN(c2ccccc2)CC1	-0.509
COc1ccc(C)cc1NC(=O)COC(=O)c1c(C)noc1C	-0.0848
Cc1cc(C)nc(NC(=O)/C=C/c2ccccc2Cl)c1	-0.301
O=C1NC(c2ccncc2)C(C(=O)c2cccs2)C(O)(C(F)(F)F)N1 (stereo unspecified)	0.0591
CCOC(=O)C1=C(C)NC2=C(C(=O)c3ccccc32)C1c1cccnc1 (stereo unspecified)	0.0847
O=C(Cc1ccc(F)cc1)NCCc1ccccc1	0.419
CC1(C)CC(=O)c2sc(N3CCCCC3)nc2C1	-0.222
CCN(CC)CCN1C(=O)c2ccccc2NC1c1cc(OC)c(OC)c(OC)c1 (stereo unspecified)	0.0754
CCC(C)(C)NC(=O)CN(Cc1ccc2c(c1)OCO2)C(=O)CCC(=O)Nc1ccccn1	-0.0485
